The text below walks through data of PubChem BioAssay AID1346428 (National Center for Advancing Translational Sciences (NCATS), 2018).

Molecules are shown by their SMILES. The whole screen tested about 48,000 compounds, of which about 1,200 (2.5%) were called active. Roughly 2% stayed inconclusive and do not appear here.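 The calls were made as follows: active = activation of at least 60% and not above a set upper limit (about 1 call in 100 departs from these limits); inconclusive = activation of 40% to 60%, or above that upper limit; inactive = activation under 40%.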 The list shows a part of the results.

Chain of UniProt O75388 (O75388 whole entry, looked up): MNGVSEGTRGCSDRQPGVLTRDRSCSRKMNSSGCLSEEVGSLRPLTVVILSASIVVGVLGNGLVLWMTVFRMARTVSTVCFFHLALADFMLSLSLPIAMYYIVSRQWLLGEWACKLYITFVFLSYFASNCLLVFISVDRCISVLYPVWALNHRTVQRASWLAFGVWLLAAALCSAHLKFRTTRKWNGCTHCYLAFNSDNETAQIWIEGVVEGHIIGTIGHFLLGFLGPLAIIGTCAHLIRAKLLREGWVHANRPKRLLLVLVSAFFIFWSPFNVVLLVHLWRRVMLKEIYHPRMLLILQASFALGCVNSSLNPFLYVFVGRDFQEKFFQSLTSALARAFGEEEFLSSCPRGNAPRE

This assay concerns the target Probable G-protein coupled receptor 32 (Homo sapiens) (UniProt O75388). The assay is described as follows: qHTS for Agonists of Human Resolvin D1 Receptor DRV1. Also: 0% is about no effect. The following applies: CHO-K1 GPR32 beta-arrestin PathHunter luminescence, 90 min; at 76.9 µM; active compounds read high; zero percent set by DMSO-only wells. Summed up:
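Engineered CHO-K1 line co-expressing GPR32-ProLink and EA-beta-arrestin. Compound treatment lasted 90 min at 37 °C. Luminescence was recorded after 1 h with substrate at ambient temperature, relative to DMSO basal wells.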
On the technique in general: Quantitative high-throughput screening tests each substance at several concentrations.
As to `COc1cccc(CNC(=O)c2c(C)oc3nc(C)nc(N4CCOCC4)c23)c1`, the activation is inactive: 0.981%.

Consider `CCN(CC)S(=O)(=O)c1ccc2c(c1)N(CC(=O)N1CCN(c3ccc(Cl)cc3)CC1)C(=O)CO2`, for which the activation is inactive: -23.5%.

Consider `O=C(NC1CCCCCC1)C1c2ccccc2C(=O)N1Cc1ccccc1Cl` (configuration not stated), for which the activation is inactive: -11.4%.

With `Cc1cccc(C(=O)Nc2ccc(OCc3cc(=O)n4ccsc4n3)cc2)c1`, the activation is inactive: -2.19%.

For the molecule `CCOC(=O)c1c(-c2ccccc2)csc1NC(=O)c1cc(-c2ccc(C)c(F)c2)on1`, the activation is inactive: -4.99%.

For `O=C(Cn1ccc2cc(S(=O)(=O)N3CCCCCC3)ccc21)NCCc1ccc(Cl)cc1`, the activation is inactive: 19.1%.

Consider `O=C(O)[C@@H]1[C@H]2C[C@H]3c4[nH]c5ccccc5c4CCN3C[C@@H]2CC[C@@H]1O`, for which the activation was inactive: -16.1%.

As for `CCOc1ccccc1-c1nc(SCC(=O)c2ccc(OC)c(Br)c2)n[nH]1`, the activation is inactive: -6.01%.

In the case of `CCc1ccc(NC(=O)C2CCCN(S(=O)(=O)c3c(C)noc3/C=C/N(C)C)C2)cc1` (configuration not stated), the activation was inactive: -26.8%.

As to `Cc1ccc(Cl)cc1N1CCN(C(=O)CCCCCn2c(=O)[nH]c3ccccc3c2=O)CC1`, the activation was inactive: -6.8%.

As for `Cc1ccc(-n2c3c(cc(C(=O)Nc4cccc(Cl)c4)c2=O)C(=O)CC(C)(C)C3)cc1`, the activation is inactive: -17.4%.

As for `CCN1CCN(C(=O)c2ccc3c(c2)N(Cc2ccccc2F)C(=O)c2ccccc2S3=O)CC1` (configuration not stated), the activation is inactive: 32.3%.

Take `CC(C)OC(=O)c1cccnc1SCC(=O)Nc1ccc(C(F)(F)F)cc1Cl`: the activation is inactive: -14.6%.

On to `O=C(NCCCN1CCCCC1)c1[nH]c2ccccc2c1Sc1ccc(Cl)cc1`, for which the activation is inactive: -22.9%.

`Cc1ccc(NC(=O)C2CCN(S(=O)(=O)c3ccc4c(c3)CCCN4C(=O)C3CCC3)CC2)cc1`: the activation is inactive: -11.2%.

Consider `O=C(CCS(=O)(=O)c1nc(-c2cccs2)cc(C(F)(F)F)n1)Nc1ccc(F)c(Cl)c1`, for which the activation was inactive: -35.9%.

As for `Cc1c(Cl)cccc1-n1ncc(C(=O)N2CCC(C)CC2)c1C1CCN(C(=O)OC(C)(C)C)CC1`, the activation is inactive: -5.45%.

In the case of `Cc1cc(C)nc(NS(=O)(=O)c2ccc(NC(=O)c3nc(SC(C)C)ncc3Cl)cc2)n1`, the activation is inactive: -2.99%.

On to `CC(=O)c1ccc(N2CCN(C(=O)c3cc4c(s3)-c3ccccc3OC4)CC2)cc1`, for which the activation is inactive: 17.5%.

Turning to `CC(C)C(NS(=O)(=O)c1ccc2c(c1)oc(=O)n2C)C(=O)NCc1ccccc1` (configuration not stated), the activation is inactive: -0.244%.

On to `COc1ccc(NC(=O)CSc2nc(-c3ccccc3)[nH]c2-c2ccccc2)cc1OC`, for which the activation is inactive: 10.8%.

As to `CN(C(=O)C1CCN(c2ncnc3c2nc2n3CCCCC2)CC1)c1ccccc1F`, the activation is inactive: -2.77%.

For the molecule `CCN(CC)c1ccc(NC(=O)CN2CCN(S(=O)(=O)c3cc(Cl)ccc3OC)CC2)cc1`, the activation is inactive: 4.6%.

On to `Cc1oc(-c2ccc(C(=O)NCc3ccccc3F)cc2)nc1COc1ccccc1`, for which the activation was inactive: -8.97%.

For `COc1cccc(NC(=O)Cn2nnc(C(=O)NCCc3ccccc3)c2N)c1`, the activation was inactive: -13.3%.

Regarding `Cn1cnc2c(=O)oc3ccc(S(=O)(=O)N4CCN(c5ccccc5F)CC4)cc3c21`, the activation is inactive: -1.5%.

With `O=C(Nc1cccc(C(=O)OCc2cc(=O)n3c4c(sc3n2)CCCC4)c1)c1cccc(Cl)c1`, the activation is inactive: -11.1%.

Take `COc1ccc(CCn2c(=O)c3cccnc3n(CC(=O)Nc3ccc(C)cc3C)c2=O)cc1OC`: the activation was inactive: -20.9%.

For `Cn1cc(C(=O)Nc2ccc(C#N)cc2)c2ccccc2c1=O`, the activation was inactive: -30.4%.

Regarding `Cc1nc(-c2ccc(S(=O)(=O)N(Cc3ccccc3)C(C)C)cc2)co1`, the activation was inactive: -9.4%.

As to `CC(C)OCCCNC(=O)CCCn1c(SCC(N)=O)nc2c(sc3ccccc32)c1=O`, the activation is inactive: -19.4%.

As for `CCOc1ccc(CCNC(=O)c2ccc3c(c2)nc2n3CCOC2)cc1OCC`, the activation is inactive: -0.348%.

For `O=C(CSc1nc2c([nH]c3ccccc32)c(=O)n1-c1ccc(F)cc1)NCc1ccc(F)cc1`, the activation was inactive: -13.2%.

`Cc1ccc(Cl)cc1NC(=O)C1CCN(C(=O)c2cnn(-c3ccccc3)c2-n2cccc2)CC1`: the activation was inactive: 17.4%.

In the case of `Cc1oc(-c2ccccc2Cl)nc1CS(=O)CC(=O)NCc1ccccc1Cl` (configuration not stated), the activation is inactive: -12.4%.

As for `COc1ccc(NC(=O)CN2CCN(CC(=O)Nc3ccccc3F)CC2)cc1OC`, the activation is inactive: -2.76%.

For the molecule `O=S(=O)(c1ccc(F)cc1)N(Cc1nc(-c2ccccc2)no1)C1CCCCC1`, the activation is inactive: -28%.

For `CCOC(=O)c1ccc(NC(=O)COc2cccc3c(=O)n(C)ccc23)cc1`, the activation was active: 68.7%.

In the case of `Cc1ccc(CN(Cc2cccn2-c2nnc(N3CCCC3=O)s2)C(=O)Nc2ccc(F)cc2)cc1`, the activation was inactive: -11.5%.

As to `O=C(COc1ccc(F)cc1)Nc1ccc(C(=O)OCc2cc(=O)n3nc(C4CC4)sc3n2)cc1`, the activation was inactive: 2.38%.

`CCOc1ccc(NC(=O)N2CCC(c3ccc(C)cc3)C2)cc1` (configuration not stated): the activation is inactive: -3.44%.

Consider `Cc1cc(Cl)ccc1OCC(=O)N1CCC(c2nc3ccccc3o2)CC1`, for which the activation is inactive: 13.1%.

On to `CO/N=C(\C(=O)N[C@@H]1C(=O)N2C(C(=O)O)=C(COC(C)=O)CS[C@H]12)c1csc(N)n1`, for which the activation was inactive: -1.75%.

Regarding `COC(=O)c1ccc(NC(=O)C(=O)NCCc2csc(-c3ccc(C(F)(F)F)cc3)n2)cc1`, the activation is inactive: 0.839%.

For the molecule `COc1ccccc1CNC(=O)CSCc1nc(-c2ccc(OC)c(OC)c2)oc1C`, the activation was inactive: -7.03%.

Regarding `Cc1ccc(-n2nc(C(=O)Nc3ccc(Br)cc3C)c(=O)n(C)c2=O)cc1`, the activation is inactive: 4.81%.

Turning to `CCOc1ccc(NC(=O)c2sc3nc4c(cc3c2N)CN(Cc2ccccc2)CC4)cc1`, the activation is inactive: 5.61%.

As to `CCCn1c2ccccc2c2cnn(CC(=O)NCc3ccc(OC)cc3)c(=O)c21`, the activation is inactive: -7.64%.

For the molecule `COc1ccc(OC)c(NC(=O)CCn2cccn2)c1`, the activation is inactive: 2.5%.

For `Cc1ccc(Cn2ccnc2SCC(=O)Nc2ccccc2C(F)(F)F)cc1`, the activation is inactive: -16.7%.

For `COc1ccccc1CNC(=O)C1CCN(S(=O)(=O)c2ccc3[nH]c(=O)ccc3c2)CC1`, the activation is inactive: -0.274%.

As to `CCOC(=O)c1ccccc1NC(=O)NCc1cccn1Cc1ccc(F)cc1`, the activation was inactive: -25.9%.

`Cc1ccccc1Cn1nc(C)c(NC(=O)c2cc(CC(C)C)on2)c1C`: the activation was active: 63.8%.

`COc1cc(OC)c(NC(=O)Cn2c(SCc3ccccc3F)nc3cccnc32)cc1Cl`: the activation is inactive: -5.03%.

With `O=C1CC(c2cccc(Cl)c2Cl)c2cc3c(cc2N1)OCCO3` (configuration not stated), the activation was inactive: 15.1%.

With `Cc1ccccc1N=Nc1ccc(N=Nc2c(O)ccc3ccccc23)c(C)c1`, the activation was inactive: 7.05%.

As to `CCOc1ccc(NC(=O)Cn2c(=O)n(Cc3ccco3)c(=O)c3ccc(C(=O)NC4CCCC4)cc32)cc1`, the activation is inactive: -5.99%.

Turning to `CCc1nn(CC(=O)N2CCN(c3cccc(Cl)c3)CC2)c(=O)c2cc3sccc3n12`, the activation is inactive: -10.8%.

Turning to `CC(=O)c1ccc(N2CCN(c3nc4ccccc4c4nc(-c5cccc(C)c5)nn34)CC2)cc1`, the activation is inactive: -11.3%.

For `CCOc1ccc(NC(=O)Cn2nc(SC)c(S(=O)(=O)c3ccccc3)c2N)cc1`, the activation is inactive: 38.2%.

Take `CC(NC(=O)c1cc2ccccc2o1)c1ccccc1` (configuration not stated): the activation is inactive: 23.5%.

As to `CCC(=O)N1CCc2cc(CNC(=O)c3ccc(C#N)cc3)ccc21`, the activation was inactive: -14.3%.

Turning to `COc1cc(OC)cc(C(=O)Nc2ccc3c(c2)OCCO3)c1`, the activation is inactive: -8.26%.

Turning to `O=C(CNC(=O)c1ccccc1F)OCc1cc(=O)n2nc(C3CC3)sc2n1`, the activation is inactive: 3.99%.

Turning to `CCOc1ccccc1Nc1nnc(-c2cc3cc(Cl)ccc3oc2=O)s1`, the activation is inactive: -4.35%.

As for `CCCn1nc(NC(=O)c2cccc(Cl)c2)c2cc3cccc(C)c3nc21`, the activation was inactive: -0.271%.

`COc1ccc(-c2nc3sc(CCNC(=O)C(=O)Nc4ccc(C)c(F)c4)c(C)n3n2)cc1`: the activation is inactive: -5.36%.

For `CCOc1ccc(NC(=O)CSC2=Nc3ccccc3C3=NC(Cc4ccccc4)C(=O)N23)cc1` (configuration not stated), the activation was inactive: -4.9%.

On to `Cc1ccc(NC(=O)Cn2c(-c3nonc3N)nc3ccccc32)cc1C`, for which the activation is inactive: -36.7%.

Turning to `COc1ccccc1CN1CCN(C2CCN(C(=O)Nc3ccccc3)CC2)C(=O)C1=O`, the activation is inactive: -5.55%.

`CCc1ccc(S(=O)(=O)c2cn(C)c3cc(F)c(F)cc3c2=O)cc1`: the activation is inactive: 4.2%.

Consider `Cc1ccccc1NC(=O)CCNC(=O)Cn1ccc2ccccc2c1=O`, for which the activation was inactive: -3.38%.

As to `CC(C)(C)C(=O)Nc1cccc(C(=O)OCc2cc(=O)n3nc(C4CC4)sc3n2)c1`, the activation was inactive: 8.03%.

On to `CC(Nc1ccc(-c2nc(-c3ccco3)no2)cc1[N+](=O)[O-])c1ccccc1` (configuration not stated), for which the activation is inactive: -14.5%.

As to `CCS(=O)(=O)c1oc(-c2ccc(F)cc2)nc1S(=O)(=O)c1ccc(Br)cc1`, the activation is inactive: -6.37%.

For the molecule `COc1ccccc1N1CCN(S(=O)(=O)CCNC(=O)C2CC(=O)N(c3ccccc3)C2)CC1` (configuration not stated), the activation is inactive: -1.38%.

In the case of `COc1cc(NC(=O)c2cc3ccc4cccnc4c3[nH]2)cc(OC)c1OC`, the activation was inactive: -6.07%.

As for `CCOC(=O)c1ccc(NC(=O)CC2C(=O)N(c3ccc(C)cc3)C(=O)N2C2CCCC2)cc1` (configuration not stated), the activation was inactive: -30.9%.

In the case of `CCOC(=O)N1CCc2c(sc(NCc3sccc3C)c2C(=O)Nc2cc(Cl)ccc2OC)C1`, the activation is inactive: -3.69%.

In the case of `CCS(=O)(=O)c1nc(S(=O)(=O)c2ccc(C)cc2)c(NCC(C)C)s1`, the activation is inactive: -18.6%.

For the molecule `COC(=O)CN1C(=O)CSc2ccc(S(=O)(=O)Nc3c(C)cc(C)cc3C)cc21`, the activation is inactive: -12.3%.

As for `CCOC(=O)c1ccc(NC(=O)CSc2nc(-c3cccs3)cc(C(F)(F)F)c2C#N)cc1`, the activation was inactive: -11.1%.
